Test results taken from the RNAGym collection of RNA variant scans (doi:10.1093/nar/gkz1192).
The source gives no read counts; variants with many changes may rest on few reads.

B1: CPEB3 Ribozyme (parent)
chain: UAACAGGGGGCCACAGCAGAAGCGUUCACGUCGCAGCCCCUGUCAGAUUCUGGUGAAUCUGCGAAUUCUGCUGUAUAUCUC

Variants of: B1
Assay: self-cleavage, relative activity (ratio to wild type); higher = more cleavage; in vitro, sequencing
How it was run: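 Relative activity was defined as the cleaved/total read fraction for a variant divided by the same fraction for the unmutated ribozyme. CPEB3 self-cleaving ribozyme libraries were made by rounds of error-prone PCR, barcoded, and transcribed in vitro with T7 RNA polymerase for 5 hours at 37°C, and cleavage ran through transcription plus a 15 min DNase I step before EDTA. Illumina sequencing of template-switched reverse transcripts gave the reads, and DNA sequencing mapped the barcodes. Averages come from three batches, using variants with at least 5 reads.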

Row | Variant | self-cleavage
1 | G10A U31C A57G | 0.16
2 | G10C A15G U26C U67C U69A A77G | 0.1
3 | G9U U31A U43C G52A A57G A65G U72C | 0.04
4 | G10A G36C U69C U72C U76A | 0.05
5 | G10A U41C G61C | 0.09
6 | G10C U25C U43A A45G U74C U78C | 0.06
7 | G10A A18G A21U U41G | 0.05
8 | G10C A13C A21G | 0.29
9 | G10A U26C U66C | 0.07
10 | G10A U49G U66A U72G | 0.05
11 | G10U A20G A21G U31C U43G A56G | 0.05
12 | G10A C11U U41C | 0.37
13 | G10A A28G C40A A56G U78C | 0.14
14 | G10A U26A A56G U67A U72C | 0.04
15 | G10A C11A U25C C39U U41A U69A | 0.04
16 | G9U U43A U54C U72G | 0.06
17 | G10C A35G A57U | 0.12
18 | G9U U58C U72C | 0.06
19 | G10A U31C U51G G63A G70U U72C | 0.1
20 | G10C A15U U26G U49C A56U U60C U78C | 0.04
21 | G9U U25C A28U U66A | 0.05

Row | Variant | self-cleavage
22 | G10C A15G A65G | 0.24
23 | G9U U25C A45G U54C U72C | 0.23
24 | G9U U31A U43C | 0.11
25 | G10A A28G A45C A56G | 0.16
26 | G9U U31C A45G U51C A65G U69C U74C | 0.03
27 | G10A A13G U25C U26C G42A A77U | 0.05
28 | G10U A18G G19C U41A U78C | 0.22
29 | G10A C11A C34A C38U U48G U66C | 0.02
30 | G10A A18G C39G U49C U51C U80C | 0.04
31 | G9U U41A A77U | 0.16
32 | G9U U25G A28U U78C | 0.17
33 | G10A A15G U41A G52C G73A U80C | 0.05
34 | G10C U43A U49A | 0.15
35 | G10A C27A U60C C79U | 0
36 | G10C C12U U67C | 0.22
37 | G10A C17U G73A A77U | 0.35
38 | G10A A35G G36C U43C U49C | 0.17
39 | G10A A13G A45G U67C U69A | 0.22
40 | G10A A18U C59G U78C U80A | 0.04
41 | G10A A21U C44U A75G | 0.04
42 | G10A A28U U41C U49C G55A | 0.05

Row | Variant | self-cleavage
43 | G10C A15G U48A U60C A64G | 0.05
44 | G10A C29U G52C | 0.14
45 | G10A C39G U43C U49C U58A U72C | 0.03
46 | G10A C12U A20G G42A U43A | 0.05
47 | G10A U25A A28G U72C U76C | 0.04
48 | G10A U26C C39U U54C A64G | 0.21
49 | G10C A28C A47U U48C | 0.15
50 | G10A C12G A18C U25C U43C C68G | 0.08
51 | G10C U49A A56G | 0.27
52 | G10A A35U U41A U69A U80C | 0.03
53 | G10C C27U U41G U51G A57G | 0.05
54 | G10A C17A U41C U54C A65G U80A | 0.14
55 | G10A A13G C50A A57G U58A | 0.22
56 | G10A U66C U80C | 0.08
57 | G10A G33A U69C | 0.13
58 | G10C A21G U26A A28U G30A U51A U58A | 0.05
59 | G10C U67C U74C | 0.12
60 | G10A U26A A35G C44G A56G A57G U58G | 0.09
61 | G10A C14U U31C U49C U54G U69C U80C | 0.18
62 | G10A U31C U72C | 0.13
63 | G10C A18G C23A U31A U74C U78C | 0.2

Row | Variant | self-cleavage
64 | G10A U41A U72C | 0.08
65 | G9U U60C U66C | 0.11
66 | G10U A18U A21G U31C U78C U80A | 0.16
67 | G10A A13G A35G U41A U74A U80A | 0.42
68 | G10A U26A U72C | 0.15
69 | G9U U41A U54C | 0.1
70 | G10A A20U C34G C68A | 0.07
71 | G10A U25C A35C | 0.05
72 | G10A U25A A64U U69A | 0.04
73 | G10A A35U U66C U67C | 0.07
74 | G10C A13U A15G U41A U43C A56G A65G | 0.31
75 | G10A U26A G33U | 0.16
76 | G10A C14U U58C U69A | 0.04
77 | G10A A28U C40U A64G | 0.13
78 | G9U U54C C71U | 0.36
79 | G10C A18G C50U U51G A56G A64G U80C | 0
80 | G10U A13G A57G U60A | 0.06
81 | G10A A18G U26C U41G | 0.32
82 | G10C G16A A64C U67C | 0.05
83 | G10A G24U U69A | 0.12
